The antibiotic and cytotoxicity screens of Wong et al. (2023)
The other results are listed elsewhere or left out.

Tested on: S. aureus RN4220
Test: growth inhibition call (relative growth <= 0.2)
Conditions: 50 µM

Growth inhibition call, inactive:
C[C@@H]1CN([C@@H](C)CO)C(=O)Cc2cc(NC(=O)Cn3cnnn3)ccc2O[C@H]1CN(C)S(=O)(=O)c1ccc(Cl)cc1, C[C@H]1CN([C@@H](C)CO)C(=O)c2cc(N(C)C)ccc2O[C@@H]1CN(C)S(=O)(=O)c1ccc(Cl)cc1, C[C@@H]1CN([C@@H](C)CO)C(=O)c2cc(NC(=O)Nc3cccc4ccccc34)ccc2O[C@@H](C)CCCCO[C@H]1CN(C)C(=O)CCCN(C)C, C[C@@H]1CN([C@@H](C)CO)C(=O)c2cccc(NC(=O)Nc3cccc4ccccc34)c2O[C@H]1CN(C)S(=O)(=O)c1cccs1
